Laboratory results reported in PubChem BioAssay AID1347430 (National Center for Advancing Translational Sciences (NCATS), 2020).
About 130 (0.14%) of roughly 91,000 compounds were called active. Inconclusive means that the source gave no clear call. Such entries were picked first, then a sample of the others. Calls come from the whole dose curve; as a rule, active = well fitted inhibition curve with a large enough effect; inconclusive = small, poorly fitted or top-dose-only effect; inactive = flat fitted curve, though single readings scatter. Where the call is inconclusive, the potency comes from a doubtful curve fit.
% is set by controls: 0 for no effect and ±100 for the full control effect; potency is the fitted concentration of half-maximal effect; tags give direction and shape of the fitted curve.
Note: nearly all actives have a fitted effect of over 65% in size.

Each molecule was assayed on Uracil-DNA glycosylase (assay: Primary qHTS assay for inhibitors of Activation Induced Cytidine Deaminase (AID): UDG Counterscreen signal). Details: FRET deamination/UDG coupled assay, UDG read, 4 h; activity change, negative = inhibition: at 115 µM (top of the series).
With `O=C(/C=C/c1ccc(-c2cc(Cl)ccc2Cl)o1)c1ccc(Cl)cc1` the “activity change, negative = inhibition” value was inactive: 0.871%.
In the case of `CCC(=O)N1c2ccccc2CC1C(=O)NCCN1CCN(c2cccc(C(F)(F)F)c2)CC1` (stereo not given), the Potency is reported as inconclusive: 79.4 µM [inhibitor, partial curve, poor fit].
`COc1ccc(OC)c(C(=O)COC(=O)CCC(=O)c2ccc(Cl)cc2)c1` was tested, and the “activity change, negative = inhibition” value was inactive: -2.46%.
In the case of `Cc1ccc(C(=O)Nc2cccc(O)c2)cc1S(=O)(=O)N1CCCCCC1`, the Potency is reported as inconclusive: 10 µM [inhibitor, full curve, poor fit].
In the case of `COc1ccc(NC(=O)c2ncoc2-c2ccco2)cc1Cl`, the Potency is reported as inconclusive: 100 µM [inhibitor, partial curve, poor fit].
For `Cc1cccc(C(=O)Nc2ccc3nc(SCC(=O)N4CCc5ccccc54)sc3c2)c1`, the Potency was inconclusive: 89.1 µM [inhibitor, single point].
`CCn1c(=O)n(-c2ccc3c(c2)OCO3)c2nc(-c3cc(OC)ccc3OC)nc(C(N)=O)c21` was tested, and the “activity change, negative = inhibition” value was inactive: 6%.
In the case of `COc1ccc(CNC(=O)c2ccc(NC(=O)N3CCSc4ncccc43)cc2)c(OC)c1`, the Potency is reported as inconclusive: 89.1 µM [inhibitor, single point].
In the case of `Cc1ccc(-c2noc(CSc3nnc(C)n3-c3ccc(F)cc3)n2)cc1`, the Potency is reported as inconclusive: 79.4 µM [inhibitor, partial curve, poor fit].
With `CCCCn1c(=O)[nH]c(=O)c2c1nc(CSc1nnnn1C1CCCC1)n2CC` the “activity change, negative = inhibition” value was inactive: 4.12%.
`COc1cccc(-c2nc(S(=O)(=O)c3ccc(C)cc3)c(NCc3ccccc3)o2)c1` was tested, and the Potency was inconclusive: 35.5 µM [inhibitor, partial curve, poor fit].
`Clc1cccc(N2CCN(c3nc4ccccc4c4nc(-c5ccccc5)nn34)CC2)c1` was tested, and the Potency was inconclusive: 89.1 µM [inhibitor, single point].
For `Cc1cc(C)cc(NC(=O)Cn2c(=O)n(CCC(C)C)c(=O)c3cccnc32)c1`, the Potency was inconclusive: 89.1 µM [inhibitor, partial curve, poor fit].
`O=C(CSc1nc2ccccc2c2nc(-c3ccccc3)nn12)Nc1ccc(F)cc1` was tested, and the Potency was inconclusive: 79.4 µM [inhibitor, partial curve, poor fit].
`O=C(Cn1c2ncccc2c(=O)n1-c1ccccc1)Nc1cccc(C(F)(F)F)c1` was tested, and the Potency was inconclusive: 79.4 µM [inhibitor, partial curve, poor fit].
`CCOc1ccccc1N(C)C(=O)c1cc(S(=O)(=O)NCc2ccc(C)cc2)ccc1F` was tested, and the Potency was inconclusive: 79.4 µM [inhibitor, partial curve].
`CN1CCN(C(=O)c2cnn(-c3ccccc3)c2C2CCN(C(=O)OC(C)(C)C)CC2)CC1` was tested, and the Potency was inconclusive: 89.1 µM [inhibitor, single point].
For `CC(C)(C)OC(=O)N1CCC(c2c(C(=O)N3CCN(c4ccccc4F)CC3)cnn2C(C)(C)C)CC1`, the Potency was inconclusive: 89.1 µM [inhibitor, single point].
In the case of `CC(=O)N1CCc2c(sc3c2c(=O)n(-c2cc(Cl)ccc2C)c(=O)n3C)C1`, the Potency is reported as inconclusive: 79.4 µM [inhibitor, partial curve, poor fit].
With `COc1ccc(Cl)cc1NC(=O)COc1cccc2c(=O)n(C)ccc12` the Potency was inconclusive: 89.1 µM [inhibitor, single point].
In the case of `N#Cc1ccc(/C=C2\CSc3ccccc3C2=O)cc1`, the “activity change, negative = inhibition” value is reported as inactive: -3.53%.
`CCSc1nc2c(c(=O)[nH]1)C(c1ccc(C)o1)C1=C(CCCC1=O)N2` (stereo not given) was tested, and the “activity change, negative = inhibition” value was inactive: -4.49%.
In the case of `COc1ccc(Nc2cc(C)c3cc(NC(=O)COc4cccc(C)c4)ccc3n2)cc1`, the “activity change, negative = inhibition” value is reported as inactive: -15%.
`O=C(CSc1nnc(-c2cccc(S(=O)(=O)N3CCCCC3)c2)o1)c1ccccc1` was tested, and the Potency was inconclusive: 89.1 µM [inhibitor, single point].
`CCCn1nc(C(=O)Nc2nc(-c3cc(OC)ccc3OC)cs2)c2ccccc2c1=O` was tested, and the “activity change, negative = inhibition” value was inactive: 7.69%.
For `Cc1ccc(CNC(=O)c2sccc2C)cn1`, the “activity change, negative = inhibition” value was inactive: -7.73%.
With `Cc1cccc(/C=C/c2ccc3ccccc3n2)c1` the “activity change, negative = inhibition” value was inactive: -14.2%.
With `CCC(CC)c1nnc(NC(=O)c2nn(Cc3ccccc3)c(=O)c3ccccc23)s1` the “activity change, negative = inhibition” value was inactive: 4.46%.
In the case of `COc1ccc(-c2nn(C)c3sc(C(=O)N4CCN(c5cccc(Cl)c5)CC4)cc23)cc1OC`, the Potency is reported as inconclusive: 89.1 µM [inhibitor, partial curve, poor fit].
With `Cc1ccc(C)c(N(C)S(=O)(=O)c2ccc3[nH]cc(C(=O)NC4CCCC4)c(=O)c3c2)c1` the Potency was inconclusive: 100 µM [inhibitor, single point].
`CCSC1=N/C(=C\c2cccc3ccccc23)C(=O)S1` was tested, and the “activity change, negative = inhibition” value was inactive: -3.36%.
For `O=C(NCc1ccc(F)cc1)C1CCCN(C(=O)c2cccc(C(F)(F)F)c2)C1` (stereo not given), the “activity change, negative = inhibition” value was inactive: -6.32%.
For `O=C(NCc1ccc(F)cc1)C(=O)NCC(c1cccs1)S(=O)(=O)c1cccs1` (stereo not given), the Potency was inconclusive: 79.4 µM [inhibitor, single point].
For `Cc1ccc(-n2ncc3c(N4CCCCCC4)ncnc32)cc1C`, the Potency was inconclusive: 100 µM [inhibitor, single point].
For `Cc1oc(-c2ccccc2F)nc1CSCC(=O)NCCc1ccccc1`, the Potency was inconclusive: 100 µM [inhibitor, single point].
For `CCCCn1cc(S(=O)(=O)c2ccccc2)c(=O)c2cc(F)c(N3CCC(C)CC3)cc21`, the Potency was inconclusive: 70.8 µM [inhibitor, single point].
With `CCOC(=O)c1cnc2c(C)cc(C)cc2c1Nc1ccc(OCc2ccccc2)cc1` the Potency was inconclusive: 100 µM [inhibitor, partial curve, poor fit].
For `O=C(CN1CCN(CC(=O)Nc2ccccc2F)CC1)Nc1ccc(Cl)c(C(F)(F)F)c1`, the Potency was inconclusive: 79.4 µM [inhibitor, partial curve, poor fit].
With `CCCc1nn(C)c2c(=O)[nH]c(-c3cc(S(=O)(=O)Nc4ccccc4C)ccc3OCC)nc12` the “activity change, negative = inhibition” value was inactive: 10.5%.
`CCn1cc(S(=O)(=O)c2ccc(C)cc2C)c(=O)c2cc(F)c(N3CCCC3)cc21` was tested, and the Potency was inconclusive: 79.4 µM [inhibitor, single point].
In the case of `Cc1ccc(C)c(OCC(O)Cn2nc(C)c3ccccc3c2=O)c1C` (stereo not given), the “activity change, negative = inhibition” value is reported as inactive: -4.86%.
In the case of `O=C(Cn1c(=O)oc2cc(S(=O)(=O)NCc3ccccc3)ccc21)N(CCO)Cc1ccccc1`, the Potency is reported as inconclusive: 89.1 µM [inhibitor, single point].
For `CCC1CN(C(=O)Nc2cc(OC)cc(OC)c2)c2ccccc2S1` (stereo not given), the Potency was inconclusive: 44.7 µM [inhibitor, partial curve, poor fit].
For `Cc1ccc(OCC(=O)OCc2cc(=O)n3c(C)csc3n2)cc1`, the Potency was inconclusive: 89.1 µM [inhibitor, single point].
For `COc1ccc(NC(=O)C2=C(C)Nc3nc4ccccc4n3C2c2ccccc2C)cc1` (stereo not given), the Potency was inconclusive: 100 µM [inhibitor, single point].
For `O=C(O)c1ccccc1NC(=O)N1c2ccccc2Sc2ccccc21`, the Potency was inconclusive: 79.4 µM [inhibitor, partial curve, poor fit].
`O=S(=O)(Nc1nc2ccccc2nc1Nc1ccc(Br)cc1)c1cccs1` was tested, and the Potency was inconclusive: 89.1 µM [inhibitor, single point].
For `CCN(CC)S(=O)(=O)c1ccc(N2CCCC2)c(NS(=O)(=O)c2ccc(OC)cc2)c1`, the Potency was inconclusive: 79.4 µM [inhibitor, single point].
For `CC(C)C(=O)Nc1ccc(Sc2ccc(Br)cc2)cc1`, the “activity change, negative = inhibition” value was inactive: -0.436%.
For `CC(Nc1ccc(-c2nc(-c3ccncc3)no2)cc1[N+](=O)[O-])c1ccccc1` (stereo not given), the Potency was inconclusive: 89.1 µM [inhibitor, partial curve, poor fit].
For `O=C1CC(c2nc3ccccc3n2CCCCOc2ccccc2)CN1c1ccccc1Cl` (stereo not given), the Potency was active: 89.1 µM.
For `O=C(O)C(c1c[nH]c2cc(F)ccc12)N1CCN(CCOc2ccc(Cl)cc2)CC1` (stereo not given), the “activity change, negative = inhibition” value was inactive: -13.9%.
With `CCOc1ccc(-n2c(Cc3ccccc3)nnc2SCc2nc(-c3ccccc3C)no2)cc1` the Potency was inconclusive: 20 µM [inhibitor, partial curve, poor fit].
In the case of `CCS(=O)(=O)N1CCc2cc(C(=O)N3CCN(c4cccc(C(F)(F)F)c4)CC3)ccc21`, the Potency is reported as inconclusive: 56.2 µM [inhibitor, partial curve, poor fit].
With `COCCN(CC(N)=O)S(=O)(=O)c1cc(F)ccc1C` the “activity change, negative = inhibition” value was inactive: 4.17%.
For `N#CC1=C(N)Oc2c(c(=O)[nH]c3ccccc23)C1c1ccc(F)cc1` (stereo not given), the Potency was inconclusive: 89.1 µM [inhibitor, single point].
For `COc1cccc(CNC(=O)Cn2cc3c(n2)-c2c(oc(C(=O)N4CCCC4)c2C)CC3)c1OC`, the Potency was inconclusive: 44.7 µM [inhibitor, partial curve, poor fit].
For `CC(=O)Oc1ccc2c(C)c(CC(=O)NC3CCCCCC3)c(=O)oc2c1OC(C)=O`, the “activity change, negative = inhibition” value was inactive: -4.72%.
`CN1C(=O)Cc2cc(S(=O)(=O)CCC(=O)Nc3cccc(C(F)(F)F)c3)ccc21` was tested, and the Potency was inconclusive: 89.1 µM [inhibitor, partial curve, poor fit].
In the case of `CNC(=O)c1ccc(-c2nc(CN3CCc4ccccc43)c(C)o2)cc1`, the Potency is reported as inconclusive: 89.1 µM [inhibitor, single point].
For `O=C(NC1CCOC1=O)C1CCCCC1` (stereo not given), the “activity change, negative = inhibition” value was inactive: -7.29%.
For `Fc1ccc(Nc2nc(SCc3ccc(Cl)cc3)nc3ccccc23)cc1`, the “activity change, negative = inhibition” value was inactive: -14.9% [at 57.5 µM].
In the case of `O=C(CCS(=O)(=O)c1ccc(Br)s1)Nc1c(F)cccc1F`, the Potency is reported as inconclusive: 100 µM [inhibitor, single point].
With `Cc1cccc(OCC(=O)OCc2cc(=O)n3nc(C4CC4)sc3n2)c1` the Potency was inconclusive: 100 µM [inhibitor, single point].
For `Cc1cccc(C(=O)N2CCN(c3oc(-c4cccs4)nc3C#N)CC2)c1`, the Potency was inconclusive: 89.1 µM [inhibitor, single point].
